# Measured values from the supplement of paper PMC8728848.
# This is one part of the list.
# B1: MPA (Maclura pomifera), P18674 (protein)
# chain: GVTFDDGAYTGIREINFEYNSETAIGGLRVTYDLNGMPFVAEDHKSFITGFKPVKISLEFPSEYIVEVSGYVGKVEGYTVIRSLTFKTNKQTYGPYGVTNGTPFSLPIENGLIVGFKGSIGYWLDYFSIYLSL
# Key:
# Assay in all cases: glycan array binding signal (z-score within array); higher = stronger binding
# Conditions in all cases: glycan notation: IUPAC condensed, linker removed
# [1] = biological target: Fuc(a1-3)[Gal3S(b1-4)]GlcNAc6S
# Summary of the method: (§1)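 Negative Z-scores can be read as non-binding. The Z-score is calculated within each array and then averaged across arrays of one protein sequence at different concentrations or buffers and across linkers. Arrays, 3228 in all, were curated from the Consortium for Functional Glycomics database and kept only where the protein sequence was available.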
# [2] = biological target: Fuc(a1-3)[GalNAc(b1-4)]GlcNAc
# Summary of the method: as §1
# [3] = biological target: Fuc(a1-3)[GalNAc(b1-4)]GlcNAc6S
# Summary of the method: as §1
# [4] = biological target: Fuc(a1-4)GlcNAc
# Summary of the method: as §1
# [5] = biological target: Fuc(b1-3)GlcNAc
# Summary of the method: as §1
# [6] = biological target: Gal(a1-2)Gal
# Summary of the method: as §1
# [7] = biological target: Gal(a1-3)Gal
# Summary of the method: as §1
# [8] = biological target: Gal(a1-3)Gal(b1-3)GlcNAc
# Summary of the method: as §1
# [9] = biological target: Gal(a1-3)Gal(b1-3)GlcNAc(b1-2)Man
# Summary of the method: as §1
# [10] = biological target: Gal(a1-3)Gal(b1-3)GlcNAc(b1-2)Man(a1-3)[Gal(a1-3)Gal(b1-3)GlcNAc(b1-2)Man(a1-6)]Man(b1-4)GlcNAc(b1-4)GlcNAc
# Summary of the method: as §1
# [11] = biological target: Gal(a1-3)Gal(b1-3)GlcNAc(b1-3)GalNAc
# Summary of the method: as §1
# [12] = biological target: Gal(a1-3)Gal(b1-3)GlcNAc(b1-6)GalNAc
# Summary of the method: as §1
# [13] = biological target: Gal(a1-3)Gal(b1-3)[Fuc(a1-4)]GlcNAc(b1-2)Man(a1-3)[Gal(a1-3)Gal(b1-3)[Fuc(a1-4)]GlcNAc(b1-2)Man(a1-6)]Man(b1-4)GlcNAc(b1-4)GlcNAc
# Summary of the method: as §1
# [14] = biological target: Gal(a1-3)Gal(b1-4)Glc
# Summary of the method: as §1
# [15] = biological target: Gal(a1-3)Gal(b1-4)GlcNAc
# Summary of the method: as §1
# [16] = biological target: Gal(a1-3)Gal(b1-4)GlcNAc(b1-2)Man
# Summary of the method: as §1
# [17] = biological target: Gal(a1-3)Gal(b1-4)GlcNAc(b1-2)Man(a1-3)[Gal(a1-3)Gal(b1-4)GlcNAc(b1-2)Man(a1-6)]Man(b1-4)GlcNAc(b1-4)GlcNAc
# Summary of the method: as §1
# [18] = biological target: Gal(a1-3)Gal(b1-4)GlcNAc(b1-3)GalNAc
# Summary of the method: as §1
# [19] = biological target: Gal(a1-3)Gal(b1-4)GlcNAc(b1-6)GalNAc
# Summary of the method: as §1
# [20] = biological target: Gal(a1-3)Gal(b1-4)[Fuc(a1-3)]GlcNAc
# Summary of the method: as §1
# [21] = biological target: Gal(a1-3)Gal(b1-4)[Fuc(a1-3)]GlcNAc(b1-2)Man(a1-3)[Gal(a1-3)Gal(b1-4)[Fuc(a1-3)]GlcNAc(b1-2)Man(a1-6)]Man(b1-4)GlcNAc(b1-4)GlcNAc
# Summary of the method: as §1
# [22] = biological target: Gal(a1-3)GalNAc
# Summary of the method: as §1
# [23] = biological target: Gal(a1-3)[Gal(a1-4)]Gal(b1-4)GlcNAc
# Summary of the method: as §1
# [24] = biological target: Gal(a1-4)Gal(b1-3)GlcNAc(b1-2)Man(a1-3)[Gal(a1-4)Gal(b1-3)GlcNAc(b1-2)Man(a1-6)]Man(b1-4)GlcNAc(b1-4)GlcNAc
# Summary of the method: as §1
# [25] = biological target: Gal(a1-4)Gal(b1-4)Glc
# Summary of the method: as §1
# [26] = biological target: Gal(a1-4)Gal(b1-4)GlcNAc
# Summary of the method: as §1
# [27] = biological target: Gal(a1-4)Gal(b1-4)GlcNAc(b1-2)Man(a1-3)[Gal(a1-4)Gal(b1-4)GlcNAc(b1-2)Man(a1-6)]Man(b1-4)GlcNAc(b1-4)GlcNAc
# Summary of the method: as §1
# [28] = biological target: Gal(a1-4)Gal(b1-4)GlcNAc(b1-3)Gal(b1-4)Glc
# Summary of the method: as §1
# [29] = biological target: Gal(a1-4)GlcNAc
# Summary of the method: as §1
# [30] = biological target: Gal(a1-6)Glc
# Summary of the method: as §1
# [31] = biological target: Gal(b1-2)Gal
# Summary of the method: as §1
# [32] = biological target: Gal(b1-3)Gal
# Summary of the method: as §1
# [33] = biological target: Gal(b1-3)Gal(b1-4)GlcNAc
# Summary of the method: as §1
# [34] = biological target: Gal(b1-3)GalNAc
# Summary of the method: as §1
# [35] = biological target: Gal(b1-3)GalNAc(a1-3)[Fuc(a1-2)]Gal(b1-4)Glc
# Summary of the method: as §1
# [36] = biological target: Gal(b1-3)GalNAc(a1-3)[Fuc(a1-2)]Gal(b1-4)GlcNAc
# Summary of the method: as §1
# [37] = biological target: Gal(b1-3)GalNAc(b1-3)Gal
# Summary of the method: as §1
# [38] = biological target: Gal(b1-3)GalNAc(b1-3)Gal(a1-4)Gal(b1-4)Glc
# Summary of the method: as §1
# [39] = biological target: Gal(b1-3)GalNAc(b1-4)Gal(b1-4)Glc
# Summary of the method: as §1
# [40] = biological target: Gal(b1-3)GalNAc(b1-4)[Neu5Ac(a2-3)]Gal(b1-4)Glc
# Summary of the method: as §1
# [41] = biological target: Gal(b1-3)GlcNAc
# Summary of the method: as §1
# [42] = biological target: Gal(b1-3)GlcNAc(a1-3)Gal(b1-4)GlcNAc
# Summary of the method: as §1
# [43] = biological target: Gal(b1-3)GlcNAc(a1-6)Gal(b1-4)GlcNAc
# Summary of the method: as §1
# [44] = biological target: Gal(b1-3)GlcNAc(b1-2)Man
# Summary of the method: as §1
# [45] = biological target: Gal(b1-3)GlcNAc(b1-2)Man(a1-3)[Gal(b1-3)GlcNAc(b1-2)Man(a1-6)]Man(b1-4)GlcNAc(b1-4)GlcNAc
# Summary of the method: as §1
binder,measurement,setting,value
B1,glycan array binding signal (z-score),[1],-0.222
same,glycan array binding signal (z-score),[2],-0.147
same,glycan array binding signal (z-score),[3],-0.262
same,glycan array binding signal (z-score),[4],-0.174
same,glycan array binding signal (z-score),[5],-0.103
same,glycan array binding signal (z-score),[6],-0.182
same,glycan array binding signal (z-score),[7],-0.404
same,glycan array binding signal (z-score),[8],-0.109
same,glycan array binding signal (z-score),[9],-0.279
same,glycan array binding signal (z-score),[10],0.649
same,glycan array binding signal (z-score),[11],-0.257
same,glycan array binding signal (z-score),[12],-0.081
same,glycan array binding signal (z-score),[13],0.012
same,glycan array binding signal (z-score),[14],-0.271
same,glycan array binding signal (z-score),[15],-0.249
same,glycan array binding signal (z-score),[16],-0.175
same,glycan array binding signal (z-score),[17],0.129
same,glycan array binding signal (z-score),[18],-0.244
same,glycan array binding signal (z-score),[19],-0.195
same,glycan array binding signal (z-score),[20],-0.212
same,glycan array binding signal (z-score),[21],1.46
same,glycan array binding signal (z-score),[22],-0.108
same,glycan array binding signal (z-score),[23],-0.119
same,glycan array binding signal (z-score),[24],-0.281
same,glycan array binding signal (z-score),[25],-0.067
same,glycan array binding signal (z-score),[26],-0.155
same,glycan array binding signal (z-score),[27],-0.203
same,glycan array binding signal (z-score),[28],-0.245
same,glycan array binding signal (z-score),[29],-0.152
same,glycan array binding signal (z-score),[30],-0.226
same,glycan array binding signal (z-score),[31],-0.207
same,glycan array binding signal (z-score),[32],-0.079
same,glycan array binding signal (z-score),[33],-0.211
same,glycan array binding signal (z-score),[34],-0.014
same,glycan array binding signal (z-score),[35],-0.091
same,glycan array binding signal (z-score),[36],-0.113
same,glycan array binding signal (z-score),[37],-0.233
same,glycan array binding signal (z-score),[38],-0.208
same,glycan array binding signal (z-score),[39],-0.082
same,glycan array binding signal (z-score),[40],-0.128
same,glycan array binding signal (z-score),[41],-0.201
same,glycan array binding signal (z-score),[42],-0.292
same,glycan array binding signal (z-score),[43],-0.173
same,glycan array binding signal (z-score),[44],-0.226
same,glycan array binding signal (z-score),[45],-0.101
